Test results taken from US20260297081A1, “COMPOUNDS AND METHODS OF TREATING CANCERS” (Cullgen Inc., priority 2023, published 2026).
At least one read-out could not be matched to a standard name with certainty.

Tested on: CyclinD1 (CCND1)
Test: Cyclin D1 (CCND1) percentage degradation in Calu-1 cells (Table 6)
Type: cell-based
Details: 16 hours

Structure (SMILES)	CyclinD1 Degradation (40 nM)	CyclinD1 Degradation (200 nM)
CNc1ccc(C(=O)Nc2ccc(N(C)C)nn2)c(NC2CC3(C2)CN(C(=O)N2CCN(c4ccc(Nc5ncc6c(C)c(C(C)=O)c(=O)n(C7CCCC7)c6n5)nc4)CC2)C3)n1 [CPD-133, 2-((2-(4-(6-((6-Acetyl-8-cyclopentyl-5-methyl-7-oxo-7,8-dihydropyrido[2,3-d]pyrimidin-2-yl)amino)pyridin-3-yl)piperazine-1-carbonyl)-2-azaspiro[3.3]heptan-6-yl)amino)-N-(6-(dimethylamino)pyridazin-3-yl)-6-(methylamino)nicotinamide]	B (50%< degradation activity <80%)	A (degradation activity >80%)
CNc1ccc(C(=O)Nc2ccc(N(C)C)nn2)c(NC2CC3(CC(NC(=O)N4CCN(c5ccc(Nc6ncc7c(C)c(C(C)=O)c(=O)n(C8CCCC8)c7n6)nc5)CC4)C3)C2)n1 (stereo not shown) [CPD-134, 4-(6-((6-Acetyl-8-cyclopentyl-5-methyl-7-oxo-7,8-dihydropyrido[2,3-d]pyrimidin-2-yl)amino)pyridin-3-yl)-N-(6-((3-((6-(dimethylamino)pyridazin-3-yl)carbamoyl)-6-(methylamino)pyridin-2-yl)amino)spiro[3.3]heptan-2-yl)piperazine-1-carboxamide]	C (30%< degradation activity <50%)	A (degradation activity >80%)
CNc1ccc(C(=O)Nc2cn(C)c(C3CC3)n2)c(NC2CC3(CC(NC(=O)CN4CCN(c5ccc(Nc6ncc7c(C)c(C(C)=O)c(=O)n(C8CCCC8)c7n6)nc5)CC4)C3)C2)n1 (stereo not shown) [CPD-135, 2-((6-(2-(4-(6-((6-Acetyl-8-cyclopentyl-5-methyl-7-oxo-7,8-dihydropyrido[2,3-d]pyrimidin-2-yl)amino)pyridin-3-yl)piperazin-1-yl)acetamido)spiro[3.3]heptan-2-yl)amino)-N-(2-cyclopropyl-1-methyl-1H-imidazol-4-yl)-6-(methylamino)nicotinamide]	A (degradation activity >80%)	A (degradation activity >80%)
CNc1ccc(C(=O)Nc2ccc(N(C)C)nn2)c(NC2CCC(CCNC(=O)CN3CCN(c4ccc(Nc5ncc6c(C)c(C(C)=O)c(=O)n(C7CCCC7)c6n5)nc4)CC3)C2)n1 (stereo not shown) [CPD-136, 2-((3-(2-(2-(4-(6-((6-Acetyl-8-cyclopentyl-5-methyl-7-oxo-7,8-dihydropyrido[2,3-d]pyrimidin-2-yl)amino)pyridin-3-yl)piperazin-1-yl)acetamido)ethyl)cyclopentyl)amino)-N-(6-(dimethylamino)pyridazin-3-yl)-6-(methylamino)nicotinamide]	A (degradation activity >80%)	A (degradation activity >80%)
CNc1ccc(C(=O)Nc2ccccn2)c(NC2CC3(CC(NC(=O)CN4CCN(c5ccc(Nc6ncc7c(C)c(C(C)=O)c(=O)n(C8CCCC8)c7n6)nc5)CC4)C3)C2)n1 (stereo not shown) [CPD-137, 2-((6-(2-(4-(6-((6-Acetyl-8-cyclopentyl-5-methyl-7-oxo-7,8-dihydropyrido[2,3-d]pyrimidin-2-yl)amino)pyridin-3-yl)piperazin-1-yl)acetamido)spiro[3.3]heptan-2-yl)amino)-6-(methylamino)-N-(pyridin-2-yl)nicotinamide]	B (50%< degradation activity <80%)	A (degradation activity >80%)
CC(=O)c1c(C)c2cnc(Nc3ccc(N4CCN(CC(=O)NC5CC6(C5)CC(Nc5nc(C7CC7)ccc5C(=O)Nc5cccc(C7CC7)n5)C6)CC4)cn3)nc2n(C2CCCC2)c1=O (stereo not shown) [CPD-138, 2-((6-(2-(4-(6-((6-Acetyl-8-cyclopentyl-5-methyl-7-oxo-7,8-dihydropyrido[2,3-d]pyrimidin-2-yl)amino)pyridin-3-yl)piperazin-1-yl)acetamido)spiro[3.3]heptan-2-yl)amino)-6-cyclopropyl-N-(6-cyclopropylpyridin-2-yl)nicotinamide]	C (30%< degradation activity <50%)	A (degradation activity >80%)
CC(=O)c1c(C)c2cnc(Nc3ccc(N4CCN(CC(=O)NC5CC6(C5)CC(Nc5nc(NC(C)C)ccc5C(=O)Nc5cccc(C7CC7)n5)C6)CC4)cn3)nc2n(C2CCCC2)c1=O (stereo not shown) [CPD-139, 2-((6-(2-(4-(6-((6-Acetyl-8-cyclopentyl-5-methyl-7-oxo-7,8-dihydropyrido[2,3-d]pyrimidin-2-yl)amino)pyridin-3-yl)piperazin-1-yl)acetamido)spiro[3.3]heptan-2-yl)amino)-N-(6-cyclopropylpyridin-2-yl)-6-(isopropylamino)nicotinamide]	A (degradation activity >80%)	A (degradation activity >80%)
CNc1ccc(C(=O)Nc2ccc(N(C)C)nn2)c(NC2CC3(C2)CC(C(=O)N2CCN(c4ccc(Nc5ncc6c(C)c(C(C)=O)c(=O)n(C7CCCC7)c6n5)nc4)CC2)C3)n1 (stereo not shown) [CPD-140, 2-((6-(4-(6-((6-Acetyl-8-cyclopentyl-5-methyl-7-oxo-7,8-dihydropyrido[2,3-d]pyrimidin-2-yl)amino)pyridin-3-yl)piperazine-1-carbonyl)spiro[3.3]heptan-2-yl)amino)-N-(6-(dimethylamino)pyridazin-3-yl)-6-(methylamino)nicotinamide]	D (degradation activity <30%)	A (degradation activity >80%)
CC(=O)c1c(C)c2cnc(Nc3ccc(N4CCN(CC(=O)NC5CC6(C5)CC(Nc5nc(C#N)ccc5C(=O)Nc5cccc(C7CC7)n5)C6)CC4)cn3)nc2n(C2CCCC2)c1=O (stereo not shown) [CPD-141, 2-((6-(2-(4-(6-((6-Acetyl-8-cyclopentyl-5-methyl-7-oxo-7,8-dihydropyrido[2,3-d]pyrimidin-2-yl)amino)pyridin-3-yl)piperazin-1-yl)acetamido)spiro[3.3]heptan-2-yl)amino)-6-cyano-N-(6-cyclopropylpyridin-2-yl)nicotinamide]	C (30%< degradation activity <50%)	C (30%< degradation activity <50%)
CC(=O)c1c(C)c2cnc(Nc3ccc(N4CCN(CC(=O)NCCCCCCCNc5nc(-c6ccc(C#N)nc6)ccc5C(=O)Nc5nc(C)c(C)s5)CC4)cn3)nc2n(C2CCCC2)c1=O [CPD-142]	C (30%< degradation activity <50%)	–
CNc1ccc(C(=O)Nc2ccc(N(C)C)nn2)c(NCCCCCCCNC(=O)CN2CCN(c3ccc(N(C)c4ncc5c(C)c(C(C)=O)c(=O)n(C6CCCC6)c5n4)nc3)CC2)n1 [CPD-143, 2-((7-(2-(4-(6-((6-acetyl-8-cyclopentyl-5-methyl-7-oxo-7,8-dihydropyrido[2,3-d]pyrimidin-2-yl)(methyl)amino)pyridin-3-yl)piperazin-1-yl)acetamido)heptyl)amino)-N-(6-(dimethylamino)pyridazin-3-yl)-6-(methylamino)nicotinamide]	D (degradation activity <30%)	A (degradation activity >80%)
CNc1ccc(C(=O)Nc2ccn(C)n2)c(NC2CC3(C2)CN(C(=O)CCN2CCN(c4ccc(Nc5ncc6c(C)c(C(C)=O)c(=O)n(C7CCCC7)c6n5)nc4)CC2)C3)n1 [CPD-144, 2-((2-(3-(4-(6-((6-acetyl-8-cyclopentyl-5-methyl-7-oxo-7,8-dihydropyrido[2,3-d]pyrimidin-2-yl)amino)pyridin-3-yl)piperazin-1-y)propanoyl)-2-azaspiro[3.3]heptan-6-yl)amino)-N-(1-methyl-1H-pyrazol-3-yl)-6-(methylamino)nicotinamide]	A (degradation activity >80%)	A (degradation activity >80%)
CNc1ccc(C(=O)Nc2ccc(N(C)C)nn2)c(NCC2CCN(C(=O)CN3CCN(c4ccc(Nc5ncc6c(C)c(C(C)=O)c(=O)n(C7CCCC7)c6n5)nc4)CC3)CC2)n1 [CPD-145, 2-(((1-(2-(4-(6-((6-acetyl-8-cyclopentyl-5-methyl-7-oxo-7,8-dihydropyrido[2,3-d]pyrimidin-2-yl)amino)pyridin-3-yl)piperazin-1-yl)acetyl)piperidin-4-yl)methyl)amino)-N-(6-(dimethylamino)pyridazin-3-yl)-6-(methylamino)nicotinamide]	D (degradation activity <30%)	A (degradation activity >80%)
CNc1ccc(C(=O)Nc2ccc(N(C)C)nn2)c(NCC2CCN(C(=O)CCN3CCN(c4ccc(Nc5ncc6c(C)c(C(C)=O)c(=O)n(C7CCCC7)c6n5)nc4)CC3)CC2)n1 [CPD-146, 2-(((1-(3-(4-(6-((6-acetyl-8-cyclopentyl-5-methyl-7-oxo-7,8-dihydropyrido[2,3-d]pyrimidin-2-yl)amino)pyridin-3-yl)piperazin-1-yl)propanoyl)piperidin-4-yl)methyl)amino)-N-(6-(dimethylamino)pyridazin-3-yl)-6-(methylamino)nicotinamide]	A (degradation activity >80%)	A (degradation activity >80%)
CNc1ccc(C(=O)Nc2ccc(N(C)C)nn2)c(NC2CC3(CC(CC(=O)N4CCN(c5ccc(Nc6ncc7c(C)c(C(C)=O)c(=O)n(C8CCCC8)c7n6)nc5)CC4)C3)C2)n1 (stereo not shown) [CPD-147, 2-((6-(2-(4-(6-((6-acetyl-8-cyclopentyl-5-methyl-7-oxo-7,8-dihydropyrido[2,3-d]pyrimidin-2-yl)amino)pyridin-3-yl)piperazin-1-yl)-2-oxoethyl)spiro[3.3]heptan-2-yl)amino)-N-(6-(dimethylamino)pyridazin-3-yl)-6-(methylamino)nicotinamide]	C (30%< degradation activity <50%)	A (degradation activity >80%)
CNc1ccc(C(=O)Nc2ccc(N(C)C)nn2)c(NC2CC(CC(=O)N3CCN(c4ccc(Nc5ncc6c(C)c(C(C)=O)c(=O)n(C7CCCC7)c6n5)nc4)CC3)C2)n1 (stereo not shown) [CPD-148, 2-((3-(2-(4-(6-((6-acetyl-8-cyclopentyl-5-methyl-7-oxo-7,8-dihydropyrido[2,3-d]pyrimidin-2-yl)amino)pyridin-3-yl)piperazin-1-yl)-2-oxoethyl)cyclobutyl)amino)-N-(6-(dimethylamino)pyridazin-3-yl)-6-(methylamino)nicotinamide]	A (degradation activity >80%)	A (degradation activity >80%)
